# Experimental data: the supplement of paper PMC8728848
# This is one part of the list.
# B1: X56-1 (Clostridium perfringens), P26831 (protein)
# chain: MGSSHHHHHHSSGLVPRGSHMASDPNRIIATYISNRQDAPTGNPDNIFDNNASTELVYKNPNRIDVGTYVGVKYSNPITLNNVEFLMGANSNPNDTMQKAKIQYTVDGREWIDLEEGVEYTMPGAIKVENLDLKVRGVRLIATEARENTWLGVRDINVNKKEDSNSGVEF
# What was measured:
# Assay in all cases: glycan array binding signal (z-score within array); higher = stronger binding
# Conditions in all cases: glycan notation: IUPAC condensed, linker removed
# Gal(b1-3)GalNAc = target: Gal(b1-3)GalNAc
# In short: (§1)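 Glycan array data were curated from 3228 arrays in the Consortium for Functional Glycomics database and kept only where the protein sequence was available. Glycan names were converted to IUPAC-condensed notation, and columns mapping to the same glycan were averaged. The binding signal is a within-array Z-score, averaged across arrays of the same protein sequence at different concentrations or buffers and across linkers. Negative Z-scores can be read as non-binding.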
# [1] = target: Gal(b1-3)GalNAc(b1-3)Gal(a1-4)Gal(b1-4)Glc
# In short: as §1
# [2] = target: Gal(b1-3)GalNAc(b1-3)Gal(b1-4)Glc
# In short: as §1
# [3] = target: Gal(b1-3)GalNAc(b1-3)Gal(b1-4)GlcNAc
# In short: as §1
# [4] = target: Gal(b1-3)GalNAc(b1-4)Gal(b1-4)Glc
# In short: as §1
# [5] = target: Gal(b1-3)GalNAc(b1-4)[Neu5Ac(a2-3)]Gal(b1-4)Glc
# In short: as §1
# [6] = target: Gal(b1-3)GlcNAc(b1-3)Gal(b1-3)GlcNAc
# In short: as §1
# [7] = target: Gal(b1-3)[Fuc(a1-4)]GlcNAc
# In short: as §1
# [8] = target: Gal(b1-3)[Fuc(a1-4)]GlcNAc(b1-3)Gal(b1-3)[Fuc(a1-4)]GlcNAc
# In short: as §1
# [9] = target: Gal(b1-3)[Fuc(a1-4)]GlcNAc(b1-3)Gal(b1-4)GlcNAc
# In short: as §1
# [10] = target: Gal(b1-3)[Fuc(a1-4)]GlcNAc(b1-3)Gal(b1-4)[Fuc(a1-3)]GlcNAc
# In short: as §1
# [11] = target: Gal(b1-3)[GlcNAc(b1-6)]GalNAc
# In short: as §1
# [12] = target: Gal(b1-3)[GlcNAc(b1-6)]GlcNAc
# In short: as §1
# [13] = target: Gal(b1-3)[Neu5Ac(a2-6)]GalNAc
# In short: as §1
# [14] = target: Gal(b1-3)[Neu5Ac(a2-6)]GlcNAc
# In short: as §1
# [15] = target: Gal(b1-3)[Neu5Ac(a2-6)]GlcNAc(a1-4)Gal(b1-4)Glc
# In short: as §1
# [16] = target: Gal(b1-3)[Neu5Ac(b2-6)]GlcNAc
# In short: as §1
# [17] = target: Gal(b1-4)GalNAc(a1-3)[Fuc(a1-2)]Gal(b1-4)GlcNAc
# In short: as §1
# [18] = target: Gal(b1-4)GalNAc(b1-3)[Fuc(a1-2)]Gal(b1-4)GlcNAc
# In short: as §1
# Gal(b1-4)Glc = target: Gal(b1-4)Glc
# In short: as §1
# Gal(b1-4)Glc6S = target: Gal(b1-4)Glc6S
# In short: as §1
# Gal(b1-4)GlcNAc = target: Gal(b1-4)GlcNAc
# In short: as §1
# [19] = target: Gal(b1-4)GlcNAc(b1-2)Man(a1-3)[Gal(b1-4)GlcNAc(b1-2)Man(a1-6)]Man(b1-4)GlcNAc(b1-4)GlcNAc
# In short: as §1
# [20] = target: Gal(b1-4)GlcNAc(b1-3)Gal(b1-3)GlcNAc
# In short: as §1
# [21] = target: Gal(b1-4)GlcNAc(b1-3)Gal(b1-4)Glc
# In short: as §1
# [22] = target: Gal(b1-4)GlcNAc(b1-3)Gal(b1-4)GlcNAc
# In short: as §1
# [23] = target: Gal(b1-4)GlcNAc(b1-3)Gal(b1-4)GlcNAc(b1-3)Gal(b1-4)GlcNAc
# In short: as §1
# [24] = target: Gal(b1-4)GlcNAc(b1-3)Gal(b1-4)[Fuc(a1-3)]GlcNAc(b1-3)Gal(b1-4)[Fuc(a1-3)]GlcNAc
# In short: as §1
# [25] = target: Gal(b1-4)GlcNAc(b1-3)GalNAc
# In short: as §1
# [26] = target: Gal(b1-4)GlcNAc(b1-3)[Gal(b1-4)GlcNAc(b1-6)]GalNAc
# In short: as §1
# [27] = target: Gal(b1-4)GlcNAc(b1-6)GalNAc
# In short: as §1
# [28] = target: Gal(b1-4)GlcNAc(b1-6)[Gal(b1-3)]GalNAc
# In short: as §1
# [29] = target: Gal(b1-4)GlcNAc(b1-6)[Gal(b1-3)]GlcNAc
# In short: as §1
# Gal3S(b1-3)GalNAc = target: Gal3S(b1-3)GalNAc
# In short: as §1
# Gal3S(b1-3)GlcNAc = target: Gal3S(b1-3)GlcNAc
# In short: as §1
# [30] = target: Gal3S(b1-3)[Fuc(a1-4)]GlcNAc
# In short: as §1
# Gal3S(b1-4)Glc = target: Gal3S(b1-4)Glc
# In short: as §1
# Gal3S(b1-4)Glc6S = target: Gal3S(b1-4)Glc6S
# In short: as §1
# Gal3S(b1-4)GlcNAc = target: Gal3S(b1-4)GlcNAc
# In short: as §1
# Gal3S(b1-4)GlcNAc6S = target: Gal3S(b1-4)GlcNAc6S
# In short: as §1
# Gal3S6S(b1-4)GlcNAc = target: Gal3S6S(b1-4)GlcNAc
# In short: as §1
# Gal3S6S(b1-4)GlcNAc6S = target: Gal3S6S(b1-4)GlcNAc6S
# In short: as §1
# Gal4S(b1-4)GlcNAc = target: Gal4S(b1-4)GlcNAc
# In short: as §1
# Gal4S6S(b1-4)GlcNAc = target: Gal4S6S(b1-4)GlcNAc
# In short: as §1
# Gal6S(b1-4)Glc = target: Gal6S(b1-4)Glc
# In short: as §1
# Gal6S(b1-4)Glc6S = target: Gal6S(b1-4)Glc6S
# In short: as §1
# Gal6S(b1-4)GlcNAc = target: Gal6S(b1-4)GlcNAc
# In short: as §1
# GalNAc(a1-3)Gal = target: GalNAc(a1-3)Gal
# In short: as §1
# GalNAc(a1-3)GalNAc = target: GalNAc(a1-3)GalNAc
# In short: as §1
# [31] = target: GalNAc(b1-3)Gal(a1-4)Gal(b1-4)GlcNAc
# In short: as §1
# GalNAc(b1-4)GlcNAc = target: GalNAc(b1-4)GlcNAc
# In short: as §1
# Glc(a1-4)Glc = target: Glc(a1-4)Glc
# In short: as §1
# Glc(a1-6)Glc(a1-6)Glc = target: Glc(a1-6)Glc(a1-6)Glc
# In short: as §1
# Glc(b1-4)Glc = target: Glc(b1-4)Glc
# In short: as §1
# Glc(b1-6)Glc = target: Glc(b1-6)Glc
# In short: as §1
# GlcA(b1-3)Gal = target: GlcA(b1-3)Gal
# In short: as §1
# GlcA(b1-6)Gal = target: GlcA(b1-6)Gal
# In short: as §1
# [32] = target: GlcNAc(a1-3)Gal(b1-4)GlcNAc
# In short: as §1
# [33] = target: GlcNAc(a1-6)Gal(b1-4)GlcNAc
# In short: as §1
# [34] = target: GlcNAc(b1-2)Gal(b1-3)GlcNAc
# In short: as §1
binder,measurement,setting,value
B1,glycan array binding signal (z-score),Gal(b1-3)GalNAc,-0.081
same,glycan array binding signal (z-score),[1],-0.193
same,glycan array binding signal (z-score),[2],-0.269
same,glycan array binding signal (z-score),[3],0.197
same,glycan array binding signal (z-score),[4],0.081
same,glycan array binding signal (z-score),[5],-0.303
same,glycan array binding signal (z-score),[6],-0.321
same,glycan array binding signal (z-score),[7],-0.09
same,glycan array binding signal (z-score),[8],0.121
same,glycan array binding signal (z-score),[9],-0.07
same,glycan array binding signal (z-score),[10],-0.031
same,glycan array binding signal (z-score),[11],-0.248
same,glycan array binding signal (z-score),[12],-0.454
same,glycan array binding signal (z-score),[13],0.454
same,glycan array binding signal (z-score),[14],-0.501
same,glycan array binding signal (z-score),[15],-0.164
same,glycan array binding signal (z-score),[16],-0.203
same,glycan array binding signal (z-score),[17],-0.007
same,glycan array binding signal (z-score),[18],-0.266
same,glycan array binding signal (z-score),Gal(b1-4)Glc,-0.173
same,glycan array binding signal (z-score),Gal(b1-4)Glc6S,-0.36
same,glycan array binding signal (z-score),Gal(b1-4)GlcNAc,-0.326
same,glycan array binding signal (z-score),[19],5.94
same,glycan array binding signal (z-score),[20],-0.369
same,glycan array binding signal (z-score),[21],-0.316
same,glycan array binding signal (z-score),[22],-0.257
same,glycan array binding signal (z-score),[23],-0.206
same,glycan array binding signal (z-score),[24],-0.211
same,glycan array binding signal (z-score),[25],-0.134
same,glycan array binding signal (z-score),[26],-0.016
same,glycan array binding signal (z-score),[27],-0.316
same,glycan array binding signal (z-score),[28],-0.092
same,glycan array binding signal (z-score),[29],-0.215
same,glycan array binding signal (z-score),Gal3S(b1-3)GalNAc,-0.167
same,glycan array binding signal (z-score),Gal3S(b1-3)GlcNAc,-0.19
same,glycan array binding signal (z-score),[30],0.479
same,glycan array binding signal (z-score),Gal3S(b1-4)Glc,0.003
same,glycan array binding signal (z-score),Gal3S(b1-4)Glc6S,0.301
same,glycan array binding signal (z-score),Gal3S(b1-4)GlcNAc,-0.244
same,glycan array binding signal (z-score),Gal3S(b1-4)GlcNAc6S,0.127
same,glycan array binding signal (z-score),Gal3S6S(b1-4)GlcNAc,-0.196
same,glycan array binding signal (z-score),Gal3S6S(b1-4)GlcNAc6S,-0.181
same,glycan array binding signal (z-score),Gal4S(b1-4)GlcNAc,-0.067
same,glycan array binding signal (z-score),Gal4S6S(b1-4)GlcNAc,-0.22
same,glycan array binding signal (z-score),Gal6S(b1-4)Glc,-0.189
same,glycan array binding signal (z-score),Gal6S(b1-4)Glc6S,-0.278
same,glycan array binding signal (z-score),Gal6S(b1-4)GlcNAc,0.38
same,glycan array binding signal (z-score),GalNAc(a1-3)Gal,-0.382
same,glycan array binding signal (z-score),GalNAc(a1-3)GalNAc,-0.016
same,glycan array binding signal (z-score),[31],-0.5
same,glycan array binding signal (z-score),GalNAc(b1-4)GlcNAc,-0.278
same,glycan array binding signal (z-score),Glc(a1-4)Glc,-0.425
same,glycan array binding signal (z-score),Glc(a1-6)Glc(a1-6)Glc,-0.371
same,glycan array binding signal (z-score),Glc(b1-4)Glc,0.021
same,glycan array binding signal (z-score),Glc(b1-6)Glc,-0.025
same,glycan array binding signal (z-score),GlcA(b1-3)Gal,-0.247
same,glycan array binding signal (z-score),GlcA(b1-6)Gal,-0.246
same,glycan array binding signal (z-score),[32],-0.256
same,glycan array binding signal (z-score),[33],0.366
same,glycan array binding signal (z-score),[34],0.418
